Measurements reported in PubChem BioAssay (Tox21).
Values joined by “and” are separate entries in the source; they are usually repeats but may differ in a detail not shown here. Identical values can stand only once. Some structures have more than one record in an assay (separate samples or runs), and their calls can disagree. Active and inactive are the calls of the source. Unless noted, calls come from the whole dose curve; as a rule, active = well fitted curve in the direction sought with a large enough effect in the repeat runs; inconclusive = weak or mixed curves; inactive = no such curve, though single readings can be large; an effect the other way counts as inactive or inconclusive.

What was measured:
[1] = target: Androgen receptor (Homo sapiens) (UniProt P10275); assay: qHTS assay to identify small molecule antagonists of the androgen receptor (AR) signaling pathway (AID 743035; active = well fitted inhibition curve with a large enough effect in the signal ratio in the repeat runs, not every such curve was filed as active; inconclusive = weak or mixed curves, or effect the other way; inactive = no such curve, though single readings can be large or run the other way; the % refers to the signal ratio; for activity change, negative = inhibition: % is set by controls: 0 for no effect and ±100 for the full control effect); settings: HEK293 AR-UAS-bla, R1881-stimulated, beta-lactamase FRET, 16 h; activity change, negative = inhibition: at 58.5 µM (top of the series) unless noted
Summary of the method: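 Using qHTS, AR-UAS-bla GripTite HEK293 cells received compound, then R1881, and were cultured 16 h at 37C/5% CO2 before a 2 h room-temperature LiveBLAzer B/G FRET substrate step and fluorescence measurement.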

[2] = qHTS assay for small molecules that induce genotoxicity in human embryonic kidney cells expressing luciferase-tagged ATAD5 - cell viability (AID 651634; calls by dose curve; note: nearly all actives have a fitted effect of over 25% in size)
Summary of the method: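 Seeding of 2,000 HEK293T ATAD5-luciferase cells per well preceded pin-tool compound transfer. Plates sat 15.5 hr at 37C under 5% CO2, then fluorescence was read after 30 min with CellTiter-Fluor.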

[3] = target: Androgen receptor (Homo sapiens) (UniProt P10275); assay: qHTS assay to identify small molecule agonists of the androgen receptor (AR) signaling pathway (AID 743036; active = well fitted activation curve with a large enough effect in the signal ratio in the repeat runs, with a control signal flat, not every such curve was filed as active; inconclusive = weak or mixed curves, or effect the other way; inactive = no such curve, though single readings can be large or run the other way; the % refers to the signal ratio); settings: HEK293 AR-UAS-bla GripTite, beta-lactamase FRET ratio, 16 h; activation: at 62.4 µM (top of the series) unless noted
Summary of the method: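 AR-bla HEK293 cells, 2,000/well; 4 h preincubation 37C/5% CO2; compound (DMSO) 16 h at 37C; LiveBLAzer B/G FRET substrate 2 h RT; fluorescence intensity read-out.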

[4] = target: Glucocorticoid receptor (Homo sapiens) (UniProt P04150); assay: qHTS assay to identify small molecule agonists of the glucocorticoid receptor (GR) signaling pathway (AID 720691; active = well fitted activation curve with a large enough effect in the signal ratio in the repeat runs, not every such curve was filed as active; inconclusive = weak or mixed curves, or effect the other way; inactive = no such curve, though single readings can be large or run the other way; the % refers to the signal ratio; for activation: % is set by controls: 0 for no effect and ±100 for the full control effect); settings: GR-bla HeLa, beta-lactamase reporter ratio, 18 h; activation: at 62.4 µM (top of the series) unless noted
Summary of the method: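 Reporter read-out: fluorescence intensity following 2 h room-temperature LiveBLAzer B/G FRET substrate loading. Prior step: GR-bla HeLa cells held 4 h, then treated 18 h at 37 C.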

[5] = qHTS assay to identify small molecule antagonists of the glucocorticoid receptor (GR) signaling pathway - cell viability counter screen (AID 720693); settings: GR-bla HeLa viability, CellTiter-Glo luminescence, 18 h, with 5 nM dexamethasone present; viability change, negative = cytotoxic: at 58.5 µM (top of the series); note: nearly all actives have a fitted effect of over 55% in size
[6] = target: Estrogen receptor (Homo sapiens) (UniProt P03372); assay: qHTS assay to identify small molecule agonists of the estrogen receptor alpha (ER-alpha) signaling pathway (AID 743075; calls by dose curve;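 note: HEK293 GripTite cells with ER-alpha and UAS-driven beta-lactamase reporter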); settings: HEK293 ER-alpha-UAS-bla, beta-lactamase FRET ratio, 18 h; activation: at 70.1 µM (top of the series)
Aromatase (Homo sapiens) = Aromatase (Homo sapiens) (UniProt P11511); assay: qHTS assay to identify aromatase inhibitors (AID 743083); note: nearly all actives have a fitted effect of over 55% in size
[7] = target: Nuclear receptor subfamily 1 group I member 2 (Homo sapiens) (UniProt O75469); assay: Human pregnane X receptor (PXR) activation by small molecules, qHTS assay (AID 1346985); note: nearly all actives have a fitted effect of over 40% in size; for activation: % is set by controls: 0 for no effect and ±100 for the full control effect
Summary of the method: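 DPX-2 cells (HepG2 co-transfected with a PXR response element and a CYP3A4-promoter luciferase construct) were seeded at 2,000 per well, rested 5 hr at 37C, then exposed to DMSO-dissolved compounds for 24 hr. Activation was read as luciferase luminescence.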

[8] = target: Aryl hydrocarbon receptor (Homo sapiens) (UniProt P35869); assay: qHTS assay to identify small molecule that activate the aryl hydrocarbon receptor (AhR) signaling pathway (AID 743085); note: nearly all actives have a fitted effect of over 15% in size
Summary of the method: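 Luminescence read-out: ONE-Glo reagent, 30 min at room temperature, in HG2L7.5c1 HepG2 reporter cells treated 24 h at 37C. Viability was measured beforehand by CellTiter-Fluor fluorescence after 30 min at 37C.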
Potency is the fitted concentration of half-maximal effect; tags give direction and shape of the fitted curve or compound fluorescence and quenching.

Sequence of UniProt P10275 (P10275 whole entry, looked up): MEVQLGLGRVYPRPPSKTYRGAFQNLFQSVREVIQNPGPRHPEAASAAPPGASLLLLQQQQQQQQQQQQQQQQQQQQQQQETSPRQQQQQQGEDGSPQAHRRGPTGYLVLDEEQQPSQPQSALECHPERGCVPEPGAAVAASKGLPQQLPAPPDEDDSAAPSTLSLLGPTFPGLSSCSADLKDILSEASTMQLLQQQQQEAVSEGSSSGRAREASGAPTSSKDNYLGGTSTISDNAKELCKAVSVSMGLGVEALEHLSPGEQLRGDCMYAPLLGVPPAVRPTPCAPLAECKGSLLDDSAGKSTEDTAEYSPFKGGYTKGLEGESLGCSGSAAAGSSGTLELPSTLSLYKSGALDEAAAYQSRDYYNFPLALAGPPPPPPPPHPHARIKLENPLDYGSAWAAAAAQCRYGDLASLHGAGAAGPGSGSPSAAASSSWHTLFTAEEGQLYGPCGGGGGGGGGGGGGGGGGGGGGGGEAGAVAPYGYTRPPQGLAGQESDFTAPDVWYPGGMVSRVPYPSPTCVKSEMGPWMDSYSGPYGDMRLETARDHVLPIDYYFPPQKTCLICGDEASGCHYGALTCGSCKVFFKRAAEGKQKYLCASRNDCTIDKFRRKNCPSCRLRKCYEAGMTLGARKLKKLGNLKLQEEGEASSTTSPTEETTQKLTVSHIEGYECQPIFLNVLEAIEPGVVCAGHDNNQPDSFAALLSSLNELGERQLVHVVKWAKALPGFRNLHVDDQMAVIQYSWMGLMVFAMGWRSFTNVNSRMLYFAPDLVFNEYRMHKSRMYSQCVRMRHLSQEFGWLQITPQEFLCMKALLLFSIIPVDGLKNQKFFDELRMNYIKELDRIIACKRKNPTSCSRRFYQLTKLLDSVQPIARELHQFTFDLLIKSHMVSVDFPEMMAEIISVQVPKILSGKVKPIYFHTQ
Sequence of UniProt P35869 (P35869 whole entry, looked up): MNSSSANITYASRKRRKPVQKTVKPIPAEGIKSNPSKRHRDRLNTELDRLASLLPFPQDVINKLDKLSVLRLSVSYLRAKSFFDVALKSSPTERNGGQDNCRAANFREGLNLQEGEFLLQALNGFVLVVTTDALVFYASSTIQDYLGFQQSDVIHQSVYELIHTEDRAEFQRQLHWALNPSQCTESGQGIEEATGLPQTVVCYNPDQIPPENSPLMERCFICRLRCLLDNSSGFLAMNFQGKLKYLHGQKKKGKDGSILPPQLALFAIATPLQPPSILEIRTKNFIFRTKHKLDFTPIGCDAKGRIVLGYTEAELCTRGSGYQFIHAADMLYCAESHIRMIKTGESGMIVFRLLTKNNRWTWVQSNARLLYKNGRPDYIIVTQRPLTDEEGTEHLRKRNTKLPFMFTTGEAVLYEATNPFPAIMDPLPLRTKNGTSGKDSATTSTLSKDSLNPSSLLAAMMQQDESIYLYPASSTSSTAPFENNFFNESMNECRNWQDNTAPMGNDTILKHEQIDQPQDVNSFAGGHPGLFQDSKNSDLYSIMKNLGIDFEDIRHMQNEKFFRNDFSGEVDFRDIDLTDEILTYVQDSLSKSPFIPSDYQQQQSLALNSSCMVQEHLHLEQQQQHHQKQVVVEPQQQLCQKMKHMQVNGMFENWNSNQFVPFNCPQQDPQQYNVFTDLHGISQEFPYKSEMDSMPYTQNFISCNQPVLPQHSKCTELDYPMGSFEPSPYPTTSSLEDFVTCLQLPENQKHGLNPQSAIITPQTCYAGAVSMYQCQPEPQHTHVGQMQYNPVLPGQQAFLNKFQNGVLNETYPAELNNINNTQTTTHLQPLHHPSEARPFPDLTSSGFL
Sequence of UniProt P11511 (P11511 whole entry, looked up): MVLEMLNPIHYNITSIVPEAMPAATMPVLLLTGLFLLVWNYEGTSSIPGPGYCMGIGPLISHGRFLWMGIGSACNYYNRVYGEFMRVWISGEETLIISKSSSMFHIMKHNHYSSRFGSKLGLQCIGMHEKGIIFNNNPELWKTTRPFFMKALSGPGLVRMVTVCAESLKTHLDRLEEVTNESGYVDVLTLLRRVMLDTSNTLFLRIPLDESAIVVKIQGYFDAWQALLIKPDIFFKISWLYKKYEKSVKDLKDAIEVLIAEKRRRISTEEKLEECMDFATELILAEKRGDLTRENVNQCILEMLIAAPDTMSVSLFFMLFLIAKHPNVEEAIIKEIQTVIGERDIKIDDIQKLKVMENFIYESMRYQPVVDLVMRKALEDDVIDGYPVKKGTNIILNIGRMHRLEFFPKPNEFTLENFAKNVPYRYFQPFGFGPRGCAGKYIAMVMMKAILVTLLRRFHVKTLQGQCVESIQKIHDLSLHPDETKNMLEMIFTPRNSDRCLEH
Sequence of UniProt P03372 (P03372 whole entry, looked up): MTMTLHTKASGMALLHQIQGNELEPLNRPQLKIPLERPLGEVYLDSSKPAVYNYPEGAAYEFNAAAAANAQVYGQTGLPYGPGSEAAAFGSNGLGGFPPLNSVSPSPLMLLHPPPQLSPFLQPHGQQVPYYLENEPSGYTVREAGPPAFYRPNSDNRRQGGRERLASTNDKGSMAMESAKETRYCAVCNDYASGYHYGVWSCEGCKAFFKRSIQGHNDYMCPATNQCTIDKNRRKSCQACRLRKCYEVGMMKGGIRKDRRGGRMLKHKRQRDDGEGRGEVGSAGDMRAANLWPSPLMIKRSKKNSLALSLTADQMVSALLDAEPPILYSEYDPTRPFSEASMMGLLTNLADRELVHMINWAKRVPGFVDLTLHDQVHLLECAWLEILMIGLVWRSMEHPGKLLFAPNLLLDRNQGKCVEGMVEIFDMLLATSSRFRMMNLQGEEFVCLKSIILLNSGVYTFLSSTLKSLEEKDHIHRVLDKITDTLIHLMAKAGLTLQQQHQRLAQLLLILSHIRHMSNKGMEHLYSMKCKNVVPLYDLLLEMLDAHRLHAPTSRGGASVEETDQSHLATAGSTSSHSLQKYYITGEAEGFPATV
Sequence of UniProt P04150 (P04150 whole entry, looked up): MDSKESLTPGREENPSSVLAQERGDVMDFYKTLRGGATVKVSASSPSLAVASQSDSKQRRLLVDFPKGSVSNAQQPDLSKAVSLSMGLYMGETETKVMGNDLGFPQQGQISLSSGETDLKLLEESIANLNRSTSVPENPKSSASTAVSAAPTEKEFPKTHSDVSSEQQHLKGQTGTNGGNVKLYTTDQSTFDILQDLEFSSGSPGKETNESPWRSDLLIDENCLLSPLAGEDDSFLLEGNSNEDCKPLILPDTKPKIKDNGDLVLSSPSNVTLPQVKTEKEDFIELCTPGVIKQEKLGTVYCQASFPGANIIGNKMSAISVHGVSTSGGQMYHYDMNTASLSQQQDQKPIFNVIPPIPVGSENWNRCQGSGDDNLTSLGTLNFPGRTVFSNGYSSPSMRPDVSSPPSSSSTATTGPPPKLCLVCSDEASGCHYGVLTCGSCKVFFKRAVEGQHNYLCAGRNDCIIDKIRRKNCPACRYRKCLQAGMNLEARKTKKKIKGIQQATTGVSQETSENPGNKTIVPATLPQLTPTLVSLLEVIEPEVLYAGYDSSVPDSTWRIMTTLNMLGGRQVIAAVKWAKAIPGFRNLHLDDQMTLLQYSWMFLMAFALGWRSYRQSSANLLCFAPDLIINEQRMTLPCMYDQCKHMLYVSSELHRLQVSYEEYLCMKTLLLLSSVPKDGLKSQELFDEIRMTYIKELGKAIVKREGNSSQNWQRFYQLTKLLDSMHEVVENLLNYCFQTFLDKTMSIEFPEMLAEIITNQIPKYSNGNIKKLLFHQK

With `CN(C)CC/C=C1/c2ccccc2CSc2ccccc21` the Potency [1] was inconclusive: 9.1 µM [rising, partial curve, poor fit].
For `CO/N=C(\C(=O)N[C@@H]1C(=O)N2C(C(=O)O)=CCS[C@H]12)c1csc(N)n1`, the Potency [2] was “inactive”.
For `CO[C@@H]1[C@@H](O[C@@H]2O[C@H](C)[C@@H](O[C@H]3C[C@@](C)(O)[C@@H](OC(=O)CC(C)C)[C@H](C)O3)[C@H](N(C)C)[C@H]2O)[C@@H](CC=O)C[C@@H](C)C(=O)/C=C/C2OC2C[C@@H](C)OC(=O)C[C@H]1OC(C)=O` (stereo partly specified), the Potency [2] was inconclusive: 23.7 µM [falling, partial curve], the Potency [1] was inconclusive: 6.74 µM [rising, partial curve, poor fit] and the Potency [3] was inconclusive: 26.8 µM [rising, partial curve, poor fit].
For `COc1ccc2c(c1)OC(C)(C)C(c1ccccc1)C2c1ccc(OCCN2CCCC2)cc1` (stereo unspecified), the Potency [4] was inconclusive: 26.8 µM [cytotoxic], the Potency [5] was inconclusive: 26.8 µM [cytotoxic, single point] and the Potency [6] was inconclusive: 21.3 µM [fluorescent]. For the same molecule, the Potency (Aromatase (Homo sapiens)) was inconclusive: 13.3 µM [inhibitor, partial curve, poor fit].
For `CCc1ccc2c(c1)N(CC(C)CN(C)C)c1ccccc1S2` (stereo unspecified), the Potency [5] was inconclusive: 26.8 µM [cytotoxic, single point], the Potency (Aromatase (Homo sapiens)) was inconclusive: 33.5 µM [inhibitor, single point] and the Potency [7] was inconclusive: 14.1 µM [activator, partial curve, poor fit].
For `CC(C)=CCC/C(C)=C/CC/C(C)=C/CC/C=C(\C)CC/C=C(\C)CCC=C(C)C`, the Potency [7] was “inactive”.
In the case of `CO[C@@H]1[C@@H](O[C@@H]2O[C@H](C)[C@@H](O[C@H]3C[C@@](C)(O)[C@@H](OC(=O)CC(C)C)[C@H](C)O3)[C@H](N(C)C)[C@H]2O)[C@@H](CC=O)C[C@@H](C)[C@@H](O)/C=C/C=C/C[C@@H](C)OC(=O)C[C@H]1O`, the Potency [4] is reported as active: 4.25 µM, the Potency [6] is reported as inconclusive: 21.3 µM [activator, partial curve] and the Potency (Aromatase (Homo sapiens)) is reported as inconclusive: 11.9 µM [inhibitor, partial curve, poor fit].
With `c1ccc2cc(C3=NCCN3)ccc2c1` the Potency [8] was inconclusive: 23.7 µM [activator, partial curve, poor fit] and the Potency [7] was “inactive”.
In the case of `C=C1CC[C@H](O)CC1=C/C=C1\CCC[C@]2(C)[C@@H]([C@H](C)CCCC(C)(C)O)CC[C@@H]12`, the Potency [2] is reported as active: 13.3 µM, the Potency [4] is reported as inconclusive: 13.4 µM [cytotoxic, full curve] and the Potency [1] is reported as inconclusive: 26.8 µM. The Potency [8] was inconclusive: 33.5 µM [activator, single point].
With `C[C@]12C=CC(=O)N[C@@H]1CC[C@@H]1[C@@H]2CC[C@]2(C)[C@@H](C(=O)Nc3cc(C(F)(F)F)ccc3C(F)(F)F)CC[C@@H]12` the Potency [4] was active: 26.8 µM.
For `CC(CN(C)C)CN1c2ccccc2Sc2ccc(C(F)(F)F)cc21` (stereo unspecified), the Potency [5] was inconclusive: 0.535 µM [rising, single point].
In the case of `CN(C)CCC=C1c2ccccc2C(C)(C)c2ccccc21`, the Potency [6] is reported as inconclusive: 26.8 µM [activator, partial curve, poor fit] and the Potency (Aromatase (Homo sapiens)) is reported as inconclusive: 33.5 µM [inhibitor, single point].
With `CN1CCN(CCC=C2c3ccccc3Sc3ccc(S(=O)(=O)N(C)C)cc32)CC1` the Potency [1] was inconclusive: 26.8 µM [falling, single point] and the Potency (Aromatase (Homo sapiens)) was inconclusive: 26.6 µM [inhibitor].
For `CC(=O)[C@]1(O)Cc2c(O)c3c(c(O)c2[C@@H](O[C@H]2C[C@H](N)[C@H](O)[C@H](C)O2)C1)C(=O)c1c(O)cccc1C3=O`, the Potency [4] was active: 10.7 µM [inconclusive] and active: 23.9 µM [inconclusive] and the Potency [5] was active: 3.01 µM.
With `CN(C)CCCN1c2ccccc2C(C)(C)c2ccccc21` the Potency [1] was “inactive” and the Potency [7] was inconclusive: 25.1 µM [activator, partial curve, poor fit].
With `CCC(C)[C@H]1O[C@]2(C=C[C@@H]1C)C[C@@H]1C[C@@H](C/C=C(\C)[C@@H](O[C@H]3C[C@H](OC)[C@@H](O[C@H]4C[C@H](OC)[C@H](NC(C)=O)[C@H](C)O4)[C@H](C)O3)[C@@H](C)/C=C/C=C3\CO[C@@H]4[C@H](O)C(C)=C[C@@H](C(=O)O1)[C@]34O)O2` (stereo partly specified) the Potency [4] was inconclusive: 9.52 µM [cytotoxic, full curve], the Potency [5] was active: 7.56 µM and active: 19 µM and the Potency (Aromatase (Homo sapiens)) was inconclusive: 29.8 µM [inhibitor, partial curve]. The Potency [8] was inconclusive: 8.41 µM [activator, partial curve, poor fit].
With `OCCN1CCN(CC/C=C2/c3ccccc3Sc3ccc(Cl)cc32)CC1` the Potency [4] was “inactive”.
In the case of `C[C@]12CCC(=O)C[C@@H]1CC[C@@H]1[C@@H]2CC[C@]2(C)C=CC[C@@H]12`, the Potency [4] is reported as “inactive”.
With `CC(=O)c1ccc2c(c1)N(CCCN1CCN(CCO)CC1)c1ccccc1S2` the Potency [2] was inconclusive: 29.8 µM [falling, partial curve, poor fit], the Potency [6] was inconclusive: 23.9 µM [activator, partial curve] and the Potency [8] was inconclusive: 29.8 µM [activator, single point].
For `CN1CCC(CN2c3ccccc3Sc3ccccc32)C1` (stereo unspecified), the activity change, negative = inhibition [1] was inconclusive: -26.8% and the Potency [7] was inconclusive: 25.1 µM [activator, partial curve, poor fit].
For `Cc1cc(/C=C/c2ccc3cc(N(C)C)ccc3[n+]2C)c(C)n1-c1ccccc1`, the Potency [2] was inconclusive: 10.1 µM [falling, partial curve], the Potency (Aromatase (Homo sapiens)) was active: 7.17 µM and the Potency [8] was inconclusive: 8.04 µM [activator, partial curve, poor fit].
